Drawing on the supplement of paper PMC4967469, this text covers AUC and IC50 for six cell lines.

A lower IC50 marks a more sensitive line; fits outside the tested doses are given as limits. The AUC spans the tested range (256-fold, ending at the top dose) of the same fit; it is 1 without any effect and falls as sensitivity rises. For part of these data: An inferred top dose comes from the curve model; the source does not state it. For part of these data: An entry number marks a drug with two screens in the source, which often give different values. Some results are limits rather than exact numbers.

Experiment in all cases: Viability of human cancer cell lines after 72 h of drug (GDSC screen)
Compound in one assay: C/C(O)=C(\C#N)C(=O)Nc1cc(Br)ccc1Br [LFM-A13]
The note with it: top dose 16 µM; top dose inferred. As to the method:
(§1)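 Human cancer cell lines in 384-well plates, medium with 10% serum, drug for 72 h over a 256-fold dose range (nine 2-fold or five 4-fold steps up to the top dose). Adherent lines were fixed and stained with the nucleic acid dye Syto60, suspension lines read with resazurin; signal relative to control wells, capped at 0 and 100%. One two-parameter sigmoid per drug and line, fitted in a mixed model over all curves with the slope shared within a line.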

Compound in another assay: CC(C)c1ccccc1Cc1cc(C(=O)Nc2ccc(S(=O)(=O)c3ccccc3C(C)(C)C)cc2)c(O)c(O)c1O [TW-37]
The conditions noted are these: top dose 5 µM. As to the method: as §1

Compound in the next assay: CC(O)(CS(=O)(=O)c1ccc(F)cc1)C(=O)Nc1ccc(C#N)c(C(F)(F)F)c1 [Bicalutamide]
The conditions noted are these: top dose inferred. As for the experimental part: as §1

Compound in the next assay: CCNC(=O)c1noc(-c2cc(C(C)C)c(O)cc2O)c1-c1ccc(CN2CCOCC2)cc1 [AUY922]
The note with it: top dose 0.256 µM; top dose inferred. As to the method:
as §1

Compound in a further assay: Cc1ccc(Nc2cc(-c3cccc(N4C(=O)c5ccccc5C4=O)c3)ncn2)cc1NS(C)(=O)=O [KIN001-270]
The note with it: top dose 20 µM; top dose inferred. As for the experimental part: as §1

Compound in another assay: Cc1cn(-c2cc(NC(=O)c3ccc(C)c(Nc4nccc(-c5cccnc5)n4)c3)cc(C(F)(F)F)c2)cn1 [Nilotinib]
The note with it: top dose 2 µM. As to the method: as §1

Compound in another assay: NC(=O)c1cccc(-c2cc(Nc3ccc(OC(F)(F)F)cc3)ncn2)c1 [GNF-2]
The note with it: top dose 1.28 µM; top dose inferred. As for the experimental part:
as §1

Compound in another assay: Nc1ccn([C@@H]2O[C@H](CO)[C@@H](O)C2(F)F)c(=O)n1 [Gemcitabine]
The note with it: top dose 1.024 µM. As to the method: as §1

Compound in the next assay: O=S(=O)(c1ccccc1)N(CC(F)(F)F)c1ccc(C(O)(C(F)(F)F)C(F)(F)F)cc1 [T0901317]
The note with it: top dose 10.24 µM; top dose inferred. As for the experimental part: as §1

Compound in a further assay: S=C(NCc1ccc2c(c1)OCO2)N1CCN(c2ncnc3c2oc2ccccc23)CC1 [MP470]
The note with it: top dose 20 µM; top dose inferred. As to the method:
as §1

The mark [1] stands for this setting: top dose 1.024 µM, screen: GDSC drug entry 150.
Setting [2] is: top dose 10 µM, screen: GDSC drug entry 1502.

One may read the IC50 as the midpoint of a concentration-inhibition curve.

Consider “NCI-H1869 (lung squamous cell carcinoma, adherent)”, for which the AUC came to 0.975 in the assay with LFM-A13; 0.525 with TW-37; 0.982 with Bicalutamide (setting [1]); 0.976 in the assay with Bicalutamide (setting [2]); 0.683 in the assay with AUY922; 0.978 with KIN001-270. For the same cell line, the AUC with Nilotinib came out at 0.983; with GNF-2, 0.966; with Gemcitabine, 0.946; with T0901317 it was 0.978; with MP470, 0.948. Also, the IC50 with LFM-A13 was above 16000 nM; with TW-37, 369 nM; in the assay with Bicalutamide (setting [1]), above 1020 nM; in the assay with Bicalutamide (setting [2]) it was above 10000 nM; with AUY922 it was 55.8 nM; with KIN001-270 it was above 20000 nM. For the same cell line, the IC50 is above 2000 nM in the assay with Nilotinib; above 1280 nM with GNF-2; above 1020 nM in the assay with Gemcitabine; above 10200 nM with T0901317; above 20000 nM in the assay with MP470.
Regarding “CMK (acute myeloid leukaemia, suspension)”, the AUC worked out at 0.99 with LFM-A13; 0.681 with TW-37; 0.991 with Bicalutamide (setting [1]); 0.978 with Bicalutamide (setting [2]); 0.33 in the assay with AUY922; 0.918 with KIN001-270. The AUC with Nilotinib came out at 0.991; in the assay with GNF-2, 0.983; in the assay with Gemcitabine, 0.118; in the assay with T0901317, 0.89; in the assay with MP470, 0.932. For the same cell line, the IC50 in the assay with LFM-A13 is above 16000 nM; with TW-37, 914 nM; in the assay with Bicalutamide (setting [1]) it was above 1020 nM; with Bicalutamide (setting [2]), above 10000 nM; with AUY922, 5.84 nM; with KIN001-270, above 20000 nM. Moreover, the half-inhibitory concentration (IC50) with Nilotinib is above 2000 nM; in the assay with GNF-2 it was above 1280 nM; with Gemcitabine, 5.15 nM; in the assay with T0901317, 8640 nM; with MP470, above 20000 nM.
As for TGW (neuroblastoma, adherent), the AUC with LFM-A13 amounted to 0.992; with TW-37, 0.576; with Bicalutamide (setting [1]), 0.992; with Bicalutamide (setting [2]), 0.991; with AUY922 it was 0.706; with KIN001-270, 0.91. The AUC in the assay with Nilotinib is 0.989; with GNF-2, 0.992; with Gemcitabine, 0.759; with T0901317 it was 0.964; with MP470, 0.968. The IC50 with LFM-A13 was above 16000 nM; with TW-37, 488 nM; with Bicalutamide (setting [1]), above 1020 nM; in the assay with Bicalutamide (setting [2]), above 10000 nM; in the assay with AUY922 it was 55.2 nM; with KIN001-270, above 20000 nM. In addition, the IC50 with Nilotinib was above 2000 nM; with GNF-2, above 1280 nM; with Gemcitabine, 311 nM; with T0901317, above 10200 nM; with MP470, above 20000 nM.
Consider K5 (thyroid, adherent), for which the AUC worked out at 0.975 in the assay with LFM-A13; 0.749 in the assay with TW-37; 0.983 in the assay with Bicalutamide (setting [1]); 0.941 with Bicalutamide (setting [2]); 0.456 with AUY922; 0.912 in the assay with KIN001-270. For the same cell line, the AUC with Nilotinib amounted to 0.986; in the assay with GNF-2 it was 0.986; with Gemcitabine, 0.732; with T0901317, 0.988; with MP470 it was 0.985. In addition, the IC50 with LFM-A13 is above 16000 nM; in the assay with TW-37, 1560 nM; with Bicalutamide (setting [1]) it was above 1020 nM; with Bicalutamide (setting [2]) it was above 10000 nM; in the assay with AUY922, 12.2 nM; in the assay with KIN001-270 it was above 20000 nM. For the same cell line, the IC50 is above 2000 nM with Nilotinib; above 1280 nM in the assay with GNF-2; 284 nM with Gemcitabine; above 10200 nM with T0901317; above 20000 nM with MP470.
Take SR (lymphoid neoplasm, suspension): the AUC in the assay with LFM-A13 came to 0.925; with TW-37, 0.614; with Bicalutamide (setting [1]), 0.98; in the assay with Bicalutamide (setting [2]), 0.962; in the assay with AUY922, 0.43; in the assay with KIN001-270, 0.777. For the same cell line, the AUC turned out to be 0.978 with Nilotinib; 0.985 with GNF-2; 0.14 with Gemcitabine; 0.874 with T0901317; 0.852 with MP470. Moreover, the IC50 in the assay with LFM-A13 was above 16000 nM; with TW-37, 620 nM; with Bicalutamide (setting [1]) it was above 1020 nM; with Bicalutamide (setting [2]) it was above 10000 nM; in the assay with AUY922, 10.5 nM; in the assay with KIN001-270 it was 7210 nM. For the same cell line, the IC50 in the assay with Nilotinib was above 2000 nM; in the assay with GNF-2, above 1280 nM; in the assay with Gemcitabine, 5.66 nM; in the assay with T0901317, 8270 nM; with MP470 it was 13200 nM.
Turning to Farage (B-cell lymphoma, suspension), the AUC with LFM-A13 amounted to 0.984; in the assay with TW-37 it was 0.516; with Bicalutamide (setting [1]) it was 0.993; in the assay with Bicalutamide (setting [2]) it was 0.99; with AUY922, 0.531; with KIN001-270, 0.875. The AUC with Nilotinib was determined as 0.972; with GNF-2, 0.992; with Gemcitabine it was 0.129; with T0901317 it was 0.983; in the assay with MP470 it was 0.845. Moreover, the IC50 was above 16000 nM in the assay with LFM-A13; 343 nM with TW-37; above 1020 nM in the assay with Bicalutamide (setting [1]); above 10000 nM with Bicalutamide (setting [2]); 19.1 nM with AUY922; 13800 nM in the assay with KIN001-270. Also, the IC50 is above 2000 nM in the assay with Nilotinib; above 1280 nM in the assay with GNF-2; 6.02 nM with Gemcitabine; above 10200 nM with T0901317; 10700 nM with MP470.
